For test [1], the target named is SpNanA (Streptococcus pneumoniae, UniProt P62575). Briefly: Sialidase inhibition assay (Example 7). The following applies: 2,7-anhydro-sialic acids; substrate Neu5Acα2-3GalβpNP; read-out: IC50 against SpNanA. The class given is biochemical.
The target of test [2] is SpNanB (Streptococcus pneumoniae serotype 4, UniProt Q54727, E68D/K536E/K577E/N393D/S59P). Briefly: Hydrolysis of 2,7-anhydro-sialic acids by SpNanB. The following applies: same condition used for the hydrolysis of 2,7-anhydro-Neu5Ac. The text has this: It was previously reported that SpNanB, similar to the leech intramolecular trans-sialidase, could have 2,7-anhydro-Neu5Ac hydrolysis activity (see, Xu, et al. J. Mol. Biol. 2008, 384, 436-449). […] However, this 2,7-anhydro-Neu5Ac hydrolysis hypothesis was never directly confirmed by followed up experiments, probably due to the limited access of the 2,7-anhydro-Neu5Ac substrate. We confirmed the 2,7-anhydro-Neu5Ac hydrolysis activity of SpNanB by directly treating 2,7-anhydro-Neu5Ac with SpNanB. In the presence of SpNanB (1.0 mg/mL), 2,7-anhydro-Neu5Ac could be converted to Neu5Ac in an estimated yield of 80% based on TLC after incubating in 37° C. for 24 h. Therefore, SpNanB catalyzes the formation of 2,7-anhydro-sialic acid which can be hydrolyzed slowly by SpNanB to form sialic acid.
The 2,7-anhydro-Neu5Ac hydrolysis activity of SpNanB is a concern since SpNanB might hydrolyze the 2,7-anhydro-Neu5cyclohexyl inhibitor.

The structures appear in SMILES notation.

This is an account of results in patent publication US11325936B2, “Sialidase inhibitors and preparation thereof” (The Regents of the University of California, priority 2017, dated 2022).

Take `O=C(N[C@H]1[C@H]2O[C@@](C(=O)O)(C[C@@H]1O)O[C@@H]2[C@H](O)CO)C(F)(F)F` [2-2, 2,7-Anhydro-3,5-dideoxy-5-trifluoroacetamido-α-D-glycero-D-galacto-non-2-ulopyranosonic acid]: in test [1], the IC50 (commonly the midpoint of a concentration-inhibition curve) stood at 145 ± 16 µM.
`O=C(O)[C@@]12C[C@@H](O)[C@@H](NC3CCCCC3)C(O1)[C@@H]([C@H](O)CO)O2` [2-4]: the “Hydrolysis by SpNanB (in words)” value in test [2] is “no hydrolysis activity was observed”.
